The record followed here is PubChem BioAssay AID1508624 (National Center for Advancing Translational Sciences (NCATS), 2021).

Several values for one entry are separate records, joined by “and”; a condition that tells them apart may be missing. Equal values may be shown once. Among all 48,000 compounds or so, about 120 (0.25%) were called active. Another 4% or so got no clear call; they are omitted. Calls come from the whole dose curve; as a rule, active = well fitted activation curve with a large enough effect; inconclusive = small, poorly fitted or top-dose-only effect, or another doubt; inactive = no such curve, though single readings can be large or run the other way. This is one part of the list.

This assay is described as follows: Primary qHTS for Identification of Small Molecule Activators of Huntingtin-Antisense Promoter Activity. Note: nearly all actives have a fitted effect of over 55% in size. The settings on record: HEK293 HTT-AS promoter firefly luciferase reporter, 24 h. A digest of the protocol: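 Quantitative HTS used concentration series of up to 57.5 uM final on HEK293 luciferase reporter cells, 24 h at 37 degrees C. Readout was Dual-Glo firefly luminescence.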
For orientation: qHTS replaces the single test concentration by a dilution series.

[1] abbreviates: at 57.5 µM (top of the series) unless noted.

On to `O=C(Oc1ccc([N+](=O)[O-])cc1)N1CCN(Cc2cccc(Oc3ccccc3)c2)CC1`, for which the activity change, positive = activation under setting [1] was inactive: -41.5%.
On the same count and under the same terms, with `CC(C)(C)OC(=O)c1ncn2c1[C@@H]1CCCN1C(=O)c1c(Br)cccc1-2` the figure was inactive: -5.14%.
As for `Cc1cc(-n2c(/C=C/c3ccc(Br)s3)nc3ccccc3c2=O)ccc1Br`, the activity change, positive = activation under setting [1] is inactive: -41.4%.
`CCN(CC)CCOC(=O)C(O)(c1ccccc1)c1ccccc1`: the activity change, positive = activation under setting [1] is inactive: -7.78%.
In the case of `Cc1cc(-n2c(/C=C/c3cccs3)nc3ccccc3c2=O)ccc1Br`, under setting [1], the activity change, positive = activation is inactive: -16.7% [at 57.5 µM, percent change from vehicle, -100% = no light].
Turning to `CCC(=O)O[C@@H]1C=C2CCC3C(CCC4(C)C3CC[C@@H]4OC(=O)CC)C2CC1` (some centres undefined), the activity change, positive = activation under setting [1] is inactive: -0.473%.
On to `C[C@H]1CNCCc2ccc(Cl)cc21`, for which the activity change, positive = activation under setting [1] is inactive: -7.37%.
For `C[C@]12C/C(=C/O)C(=O)C[C@@H]1CC[C@@H]1[C@@H]2CC[C@@]2(C)[C@H]1CC[C@]2(C)O`, under setting [1], the activity change, positive = activation was inactive: -13.9%.
In the case of `Cc1ccc(Cn2cccc(C(=O)Nc3ccc4c(c3)OCO4)c2=O)cc1`, the activity change, positive = activation under setting [1] was inactive: -4.51% [at 57.5 µM, percent change from vehicle, -100% = no light].
Turning to `CC1=NN=C(c2ccc(N)cc2)c2cc3c(cc2C1)OCO3`, the activity change, positive = activation under setting [1] was inactive: -5.56%.
The same measure, in the same setting: with `C=C1C[C@@H]2[C@H](CC[C@]3(C)C(=O)CC[C@@H]23)[C@@]2(C)C=CC(=O)C=C12` the figure was inactive: -3.74%; with `CNC(C)Cc1ccccc1OC` (centres undefined), inactive: -17.2%.
On to `COc1cccc(NC(=O)Cn2cc(C(=O)c3ccccc3)c3ccccc32)c1`, for which, under setting [1], the activity change, positive = activation is inactive: -36%.
In the case of `CCCOc1ccc(C2SCC(=O)Nc3c2c(C)nn3-c2cccc(C)c2)cc1OC` (centres undefined), the activity change, positive = activation under setting [1] was inactive: -28.4%.
As to `COc1ccccc1N1CCNCC1`, the activity change, positive = activation under setting [1] was inactive: -7.65%.
Regarding `Cc1cccc(Cn2cccc(C(=O)Nc3ccc4c(c3)OCCO4)c2=O)c1`, the activity change, positive = activation under setting [1] was inactive: -7.35%.
On the same count and under the same terms, with `CC(=O)[C@H]1CC[C@H]2[C@@H]3CC[C@H]4C[C@H](O)CC[C@]4(C)[C@H]3C(=O)C[C@]12C` the figure was inactive: -10.5%.
On the same count and under the same terms, with `CCN(CC)CCSc1nc2ccccc2c(=O)n1-c1ccc(Cl)cc1` the figure was inactive: -9.27% [at 57.5 µM, percent change from vehicle, -100% = no light]; with `CCOc1ccc(NC(=O)Cn2cc(C(=O)c3ccccc3)c3ccccc32)cc1`, inactive: -19.3%; with `COc1ccc(C)cc1NC(=O)N(Cc1ccc2c(c1)OCO2)C1CCN(Cc2ccccc2)CC1`, inactive: -29.5%.
Take `CC(=O)O[C@@]12CO[C@H]1C[C@H](O)[C@@]1(C)C(=O)[C@H](O)C3=C(C)[C@@H](O)C[C@@](O)([C@@H](OC(=O)c4ccccc4)[C@@H]21)C3(C)C`: under setting [1], the activity change, positive = activation is inactive: -16.2%.
Take `Cc1cccc(-c2nc(CN3C(=O)CN=C(c4ccccc4)c4ccccc43)c(C)o2)c1`: the activity change, positive = activation under setting [1] is inactive: -45%.
Regarding `CCOC(=O)NC(O)C(Cl)(Cl)Cl` (centres undefined), under setting [1], the activity change, positive = activation was inactive: -3.19%.
The same measure, in the same setting: the value for `COc1ccc(C(c2ccc(OC)cc2)C(Cl)(Cl)Cl)cc1` was inactive: -8.88% [at 116 µM, percent change from vehicle, -100% = no light].
On the same count and under the same terms, with `Cc1ccc(-n2c(/C=C\c3ccc(F)cc3)nc3ccccc3c2=O)cc1Cl` the figure was inactive: 12.1% [at 57.5 µM, percent change from vehicle, -100% = no light]; with `CCOC(=O)C(c1c(O)c2ccccc2oc1=O)c1c(O)c2ccccc2oc1=O`, inactive: -21.1% [at 57.5 µM, percent change from vehicle, -100% = no light]; with `Cn1c(=O)n(C)c2cc(CNCCc3ccc(F)cc3)ccc21`, inactive: -10.2% [at 57.5 µM, percent change from vehicle, -100% = no light].
With `Cc1ccc(NC(=O)Cn2cc(C(=O)c3ccccc3)c3ccccc32)cc1`, under setting [1], the activity change, positive = activation is inactive: -43.8%.
Regarding `Cc1ccc2nc(NC(=O)c3cccn(Cc4ccc(Cl)cc4)c3=O)sc2c1`, under setting [1], the activity change, positive = activation was inactive: -17.1% [at 57.5 µM, percent change from vehicle, -100% = no light].
With `COC[C@@H](NC(C)=O)C(=O)NCc1ccccc1`, the activity change, positive = activation under setting [1] is inactive: -7.96%.
Regarding `Cc1ccc(Cl)cc1NC(=O)N(Cc1ccc2c(c1)OCO2)C1CCN(Cc2ccccc2)CC1`, the activity change, positive = activation under setting [1] was inactive: -29.1%.
As to `CN1C(=O)CCS(=O)(=O)C1c1ccc(Cl)cc1` (centres undefined), under setting [1], the activity change, positive = activation was inactive: -28.6% and inactive: -5.25%.
As for `CN(C)[C@@H]1C(=O)C(C(N)=O)=C(O)[C@@]2(O)C(=O)C3=C(O)c4c(O)cccc4[C@@](C)(O)[C@H]3[C@H](O)[C@@H]12`, the activity change, positive = activation under setting [1] was inactive: -9.23%.
In the case of `Cc1cccc(Cc2cnc[nH]2)c1C`, the activity change, positive = activation under setting [1] was inactive: -15%.
On the same count and under the same terms, the value for `c1ccc2c(c1)sc1ccccc12` was inactive: -1.84%; that for `O=P1(N(CCCl)CCCl)NCCCO1` (centres undefined) was inactive: -12% and inactive: -9.35%.
On to `CC(C)(C)CC(C)(C)c1ccc(O)cc1`, for which the activity change, positive = activation is inactive: -11% (at 57.5 µM (top of the series)) and inactive: -20.4% (at 116 µM (top of the series)).
Regarding `O=C(COc1cc(Cl)ccc1Cl)Nc1ccc(Cl)cc1C(=O)c1ccccc1`, the activity change, positive = activation under setting [1] was inactive: -11.3%.
The same measure, in the same setting: the value for `NC(=O)CS(=O)C(c1ccccc1)c1ccccc1` (centres undefined) was inactive: 1.4%; that for `Oc1ccccc1-c1ccccc1` was inactive: -4.2%; that for `CCCCCCCCCC(CC)c1ccc(S(=O)(=O)O)cc1` (centres undefined) was inactive: -17% [at 116 µM].
With `COc1ccc(NC(=O)c2sc3nc4c(cc3c2N)N2CCC4CC2)cc1OC`, the activity change, positive = activation under setting [1] is inactive: -4.45%.
With `Cc1cccc(CN2CC=C(c3noc(CCC(=O)Nc4ccc(C)c(F)c4)n3)CC2)c1`, the activity change, positive = activation under setting [1] was inactive: -16.6%.
Consider `CC(=O)NC1CCSC1=O` (centres undefined), for which the activity change, positive = activation under setting [1] was inactive: 0.287%.
As for `O=C(COc1ccccc1F)N1CCN(Cc2cc(=O)n3nc(-c4ccccc4Cl)sc3n2)CC1`, the activity change, positive = activation under setting [1] is inactive: -17.6%.
Same read-out and setting: with `CCN(CC)CCN1C(=O)CN=C(c2ccccc2F)c2cc(Cl)ccc21` the figure was inactive: -3.34%.
In the case of `N#C[C@H](O[C@@H]1O[C@H](CO[C@@H]2O[C@H](CO)[C@H](O)[C@H](O)[C@H]2O)[C@H](O)[C@H](O)[C@H]1O)c1ccccc1`, the activity change, positive = activation under setting [1] was inactive: -30.4%.
As for `O=C(NC(O)C(Cl)(Cl)Cl)NC(O)C(Cl)(Cl)Cl` (centres undefined), under setting [1], the activity change, positive = activation is inactive: -2.24%.
For `Cc1ccc2c(c1)C(Cc1nc3ccccc3c(=O)n1-c1ccc(Br)cc1)C(=O)N2` (centres undefined), under setting [1], the activity change, positive = activation is inactive: -15.3%.
Turning to `CC1(C)CC/C(=C/c2ccc(Cl)cc2)C1(O)Cn1cncn1` (centres undefined), the activity change, positive = activation under setting [1] is inactive: -24% [at 116 µM].
Turning to `COc1ccc2c(c1OC)C(=O)O[C@H]2[C@@H]1c2cc3c(cc2CCN1C)OCO3`, under setting [1], the activity change, positive = activation is inactive: -0.371%.
Consider `O=C(Nc1ccc(F)c([N+](=O)[O-])c1)c1cccn(Cc2ccccc2)c1=O`, for which the activity change, positive = activation under setting [1] is inactive: -2.23% [at 57.5 µM, percent change from vehicle, -100% = no light].
Regarding `Cc1cccc(OCC(=O)N2CCN(CCc3ccccn3)CC2)c1`, the activity change, positive = activation under setting [1] was inactive: 8.7% [at 11.5 µM].
Turning to `COP(=S)(OC)Oc1ccc(Sc2ccc(OP(=S)(OC)OC)cc2)cc1`, the activity change, positive = activation under setting [1] was inactive: -9.43%.
Still for that read-out and setting: the value for `CCCCCCC(=O)CCCCCC/C=C/C[C@@H](O)[C@H](O)[C@@](N)(CO)C(=O)O` was inactive: -6.45% [at 25.1 µM].
For `COc1cccc([C@@]2(O)CCCC[C@@H]2CN(C)C)c1`, under setting [1], the activity change, positive = activation is inactive: -1.56%.
As to `CCC(=O)O[C@H]1CC[C@H]2[C@@H]3CCC4=CC(=O)CC[C@]4(C)[C@H]3CC[C@]12C`, under setting [1], the activity change, positive = activation was inactive: -11.8%.
Take `CO[C@]12CC[C@@]3(C[C@@H]1[C@](C)(O)C(C)(C)C)[C@@H]1Cc4ccc(O)c5c4[C@@]3(CCN1CC1CC1)[C@H]2O5`: the activity change, positive = activation under setting [1] is inactive: -36.6% [at 116 µM].
Regarding `CCCCc1nn2c(=O)cc(COC(=O)Cc3ccccc3)nc2s1`, under setting [1], the activity change, positive = activation is inactive: 1.75%.
As for `Cc1sc2c(c1C)C(c1ccc(Cl)cc1)=N[C@@H](CC(=O)OC(C)(C)C)c1nnc(C)n1-2`, the activity change, positive = activation under setting [1] was inactive: -30.8%.
Turning to `C[C@]12CC[C@H](O)CC1=CC[C@H]1[C@H]3CCC(=O)[C@@]3(C)CC[C@@H]12`, the activity change, positive = activation under setting [1] is inactive: -27.5%.
As to `CCN1CCCC1CNC(=O)C(O)(c1ccccc1)c1ccccc1` (centres undefined), the activity change, positive = activation under setting [1] was inactive: -1.69%.
Turning to `C=Cc1ccc(Cn2c(C)c(CNCCc3cc(OC)ccc3OC)c(C(=O)O)c2C)cc1`, the activity change, positive = activation under setting [1] is inactive: -11.5% [at 57.5 µM, percent change from vehicle, -100% = no light].
Regarding `C[C@@H]1CN(C2CCC(C#N)(c3ccc(F)cc3)CC2)CC[C@]1(C(=O)O)c1ccccc1` (some centres undefined), the activity change, positive = activation under setting [1] was inactive: -3.08%.
In the case of `C=C[C@@H]1CN2CCC1C[C@H]2[C@H](O)c1ccnc2ccccc12` (some centres undefined), the activity change, positive = activation under setting [1] is inactive: -20.5%.
On the same count and under the same terms, the value for `O=C(CCCN1CCC(n2c(=O)[nH]c3ccccc32)CC1)c1ccc(F)cc1` was inactive: -18.5%; that for `C[C@]12CC[C@H]3[C@@H](CCC4=CC(=O)CC[C@@H]43)[C@@H]1CC[C@@H]2OC(=O)CCC1CCCCC1` was inactive: -5.4%.
Consider `CCC1(CC)C(=O)NC(=O)NC1=O`, for which the activity change, positive = activation under setting [1] was inactive: -8.8%.
As for `O=C(Nc1cc(C(F)(F)F)cc(C(F)(F)F)c1)c1cccn(Cc2ccccc2Cl)c1=O`, the activity change, positive = activation under setting [1] is inactive: -24% [at 57.5 µM, percent change from vehicle, -100% = no light].
Take `C[C@]12CCC(=O)C(O)=C1CC[C@@H]1[C@H]3CCC(=O)[C@@]3(C)CC[C@@H]12`: under setting [1], the activity change, positive = activation was inactive: -12.8%.
As to `CCCC[N+]1(C)[C@H]2CC(OC(=O)[C@H](CO)c3ccccc3)C[C@H]1[C@H]1O[C@H]12` (some centres undefined), the activity change, positive = activation under setting [1] was inactive: -6.1%.
Turning to `CCc1cc2c(s1)-n1c(C)nnc1CN=C2c1ccccc1Cl`, the activity change, positive = activation under setting [1] is inactive: -1.33%.
As for `CC(C)(C)c1ccc(C(=O)Nc2ccc(Cl)cc2C(=O)c2ccccc2)cc1`, the activity change, positive = activation under setting [1] is inactive: -21.9%.
